The full ranking holds about 1,400 sequences; the median of “thermal melting temperature (Tm) of peptide-HLA complex” is about 60, and the lowest 2% start at about 45. The list shows a part of the results.
Target: HLA-B*07:02
Experiment: thermal melting temperature (Tm) of peptide-HLA complex; higher = more thermostable pHLA complex
Settings: C1R-B*07:02
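Also: cell lysates heated 10 min at 37–73 °C, remaining pHLA pulled down with pan-class I antibody, peptides quantified by DIA-MS versus 37 °C, Tm where half the complex is lost.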

Sequence	thermal melting temperature [°C]
RPGLGMTSVF	61.4
VPRSLEPPVL	57
MPALRSINL	61.2
RPRPPITLL	61.9
SPPTPIRSVL	60.6
LPRAVNTQAL	60.4
VPDDDRSLINL	56.8
LPRLPVPAV	62.7
RPYSFFTKL	59.3
ILRTAGTAL	56.4
TPSPRLAL	60
APTPPGLRNSL	59.6
VPTAKFQEL	55.4
LPRVADILTQL	61.7
WPHPPGPFL	62.3
YPARYRPTAL	58.2
LPASPAHQL	60.7
RPALPVSYL	63.6

Sequence	thermal melting temperature [°C]
GVRPFGVSL	57.4
YIDEGRLVL	51.6
IPISLHTSL	61.3
QPIGHPDAL	55.2
GPRAPGPSLL	62
RPYTNKVITL	58.1
YPEILRSNL	57.3
APRTVSVQTL	59.8
SPRTPVSPVKF	59.3
SPRALTQPLGL	61.2
TPAPSRTASF	51.1
SPNQKLLAVSL	60
VPASFRLQM	62.2
APRPASGPIRP	57.3
KPQTKLLIL	60.8
APAPPKAEA	63
QPRDIGLQI	61.3
RPGPAAPIAL	59.5
